# Experimental data as given in the supplement of paper PMC11417369.
# ± gives the standard deviation of the averaged measurements. The list shows a part of the results.
# Tested on: PfAP2-LT AP2 domain (GST-tagged)
# Experiment: gcPBM binding intensity (ln(normalized median fluorescence intensity)); higher = stronger DNA binding
# Summary of the method: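 Plasmodium falciparum DNA-binding domains carrying a GST tag were expressed in E. coli and applied for 1 h, at about 25 μg on average, to an Agilent 4 × 180k array. The array held primer-extended double-stranded 36-bp intergenic genomic probes together with negative controls, and binding took place in 1× PBS with 1% milk, 0.2 mg/ml BSA, 0.5% salmon testes DNA and 0.03% Triton X-100. An Alexa488 anti-GST antibody detected bound protein, and the array was scanned at 488 nm. Binding intensity is taken as the highest Masliner-normalised natural-log median intensity across replicate spots of either probe orientation.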
row,Sequence,gcPBM binding intensity (ln)
1,TATGAACATAAATTTGCACACTGGATATAATATATA [CACACA_site2155],8.89 ± 0.38
2,TATCTAGTTACTCCTTGTACATAATAAATGATTTTT [XGTACX_site5674],8.63 ± 0.49
3,AGAAAGAAAGAATACACACACACATATATAAATATC [CACACA_site7716],9.87 ± 0.38
4,ATTATCAATATGAAGGTGCATTTAAATAATATTTAC,8.66 ± 0.42
5,AAATATTATAGCACCACACACTTATTTTATTTATAT [CACACA_site7133],9.09 ± 0.33
6,ACTAAACTTTTATGTACACACATATAACATTAATTT [CACACA_site5276],9.07 ± 0.41
7,TTGGTACCTATAGATACACACATATATACCTATATA [CACACA_site5812],8.93 ± 0.37
8,TACAAAATGGGGAACACACACATATATATATATATA [CACACA_site3844],10.2 ± 0.05
9,TACGTAAAAATAGGACGTACTTATTTAGAAACCATA [XGTACX_site2498],8.72 ± 0.49
10,ATTTATATTTATGATACACACACGTATATTCACATA [CACACA_site460],9.32 ± 0.42
11,ATTTGTTTATAGGCCATAAAATATTTAATTCATTTG [CACACA_negctrl_site1824],8.55 ± 0.47
12,AGTATTATATTTGTATGTACGTAGTAATATATAAAA [XGTACX_site528],8.7 ± 0.35
13,TTTTTCATAAATATATGTACATATATTTTATATAAC [XGTACX_site3402],8.69 ± 0.41
14,AATGTAATATAAATATGTACATAATATATATAATTA [XGTACX_site4762],8.75 ± 0.4
15,ATATATTTATATATATGTACTTAAAACATTTCGATG [XGTACX_site328],8.54 ± 0.32
16,TTTTTATTTTTTTAGTATACGTACTAGGTTTGTTCT [XGTACX_site645],8.92 ± 0.52
17,AACAAGAAAAAAAAAAAAAAAAAAAAAAAATATTTT [XGTACX_negctrl_site428],8.41 ± 0.43
18,ATATATATATTTTTATGAGGCATAAGTAATATTTTT [TGCATGCA_negctrl_site317],8.53 ± 0.4
19,ATATAAAATATTAGTAGTACCATTAACAGTATTGTT [XGTACX_site5912],8.77 ± 0.33
20,ATTAAGATGTATATATGTACATATTACATACATATA [XGTACX_site8657],8.8 ± 0.35
21,AAAAAAAATTAATTAGTGCAAAATATATACAAAATA [GTGCAC_site9762],8.86 ± 0.48
22,TAAGAAAATATTTATGTATGCATGTCCTAATATTTC [TGCATGCA_site295],8.68 ± 0.46

row,Sequence,gcPBM binding intensity (ln)
1,AATGAAATATGGATGGGTACACATTTGATTTTATTA [XGTACX_site6155],8.75 ± 0.49
2,TATGAAAAAAAAAATACACACACGAGTTGTTATACA [CACACA_site3188],9.14 ± 0.3
3,ATATATATAAACATATGTACACATATATATAATACA [XGTACX_site1848],9.05 ± 0.36
4,TGTATGTATAGAAACACACATACATATATATAATAT [CACACA_site1405],9.02 ± 0.31
5,TATATATATAATATATGTACATATTAATTATGTATA [XGTACX_site5366],8.56 ± 0.36
6,TGAATAAATATATATACACACATATATGTATATATT [CACACA_site1642],8.95 ± 0.37
7,GAGTTTACACTCCCTTGTACATATTCATTTTTATTC [XGTACX_site5208],9.04 ± 0.46
8,GAATGCCTTGAAAATAGTACAATTAAGAAAAAATAC [XGTACX_site8002],8.77 ± 0.39
9,AATAAAAGATCATTTATTCTTTTTTTTCTTTTTAAA [CACACA_negctrl_site1256],8.12 ± 0.51
10,TAAATAAATTTATACACACACACACCGATATATATA [CACACA_site4622],9.92 ± 0.057
11,AAAATACATAAACGTTCACACATTTAAGATAACGAG [CACACA_site5345],8.96 ± 0.47
12,GAAAATTTTTGGTGTACACAAAAAAATCCAAAAAAA [CACACA_site5042],8.73 ± 0.57
13,TATGATTGTTTACGTTGTACAGCTGAATTGTTCTTA [XGTACX_site8114],8.95 ± 0.36
14,TTTTATTTTATAAAAATAAAAAAAAAATTATTACAA [TGCATGCA_negctrl_site508],8 ± 0.42
15,AATTAAATAAATGTATGTACATAATAAATATGTATT [XGTACX_site4379],8.84 ± 0.49
16,TGAAAATAGTTAATTTGTACACAAAAATTAAGAAAA [XGTACX_site5794],8.79 ± 0.51
17,AAAGAAATATATACAAAAATATGAACAATTTATTAT [XGTACX_negctrl_site78],8.7 ± 0.42
18,TTTTCGATGTTGGTAGGATGTATGGTACACGTAGTA [TGCATGCA_negctrl_site61],8.71 ± 0.42
19,TATGAAAATATATATTGTACAGAATCTATAAAAAAT [XGTACX_site8030],8.72 ± 0.51
20,TATAATAATATATATTGTACACACAAAATGGGAAAA [XGTACX_site3911],9.02 ± 0.45
21,GAATTTATGAACTGTGCATGTAAAAAAAACAACAAA [TGCATGCA_site449],8.88 ± 0.41
22,TATATGAAGCTATAGACACACATATAAAAATATAAT [CACACA_site4850],9.01 ± 0.49
